According to PubChem BioAssay AID1745853 (National Center for Advancing Translational Sciences (NCATS), 2022):
Several values for one entry are separate records, joined by “and”; a condition that tells them apart may be missing. Equal entries are not always repeated. The list shows a part of the results. Shown are side measurements of this screen, not its main read-out; they come without a call.

How the values were obtained:
Assay in all cases: Primary Screen for Target Class Profiling of Small Molecule Inhibitors of Methyltransferases
[1] = molecular target: Glycine N-methyltransferase (Homo sapiens) (UniProt Q14749); conditions: purified enzyme, MTase-Glo SAH luminescence; measured here: GNMT inhibition; at 40 µM; stronger effect = lower value
In short: (§1)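 Each enzyme was reacted with SAM and its substrate, with compounds tested once at 40 uM; SAH formed was read by MTase-Glo luminescence.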

[2] = molecular target: Guanidinoacetate N-methyltransferase (Homo sapiens) (UniProt Q14353); conditions: purified enzyme, MTase-Glo SAH luminescence; measured here: GAMT inhibition; at 40 µM; stronger effect = lower value
In short: as §1

[3] = molecular target: Histamine N-methyltransferase (Homo sapiens) (UniProt P50135); conditions: purified enzyme, MTase-Glo SAH luminescence; measured here: HNMT inhibition; at 40 µM; stronger effect = lower value
In short: as §1

[4] = molecular target: Nicotinamide N-methyltransferase (Homo sapiens) (UniProt P40261); conditions: purified enzyme, MTase-Glo SAH luminescence; measured here: NNMT inhibition; at 40 µM; stronger effect = lower value
In short: as §1

[5] = molecular target: Phenylethanolamine N-methyltransferase (Homo sapiens) (UniProt P11086); conditions: purified enzyme, MTase-Glo SAH luminescence; measured here: PNMT inhibition; at 40 µM; stronger effect = lower value
In short: as §1
% is set by controls: 0 for no effect and ±100 for the full control effect.

Structure (SMILES) | activity change, negative = inhibition [1] | activity change, negative = inhibition [2] | activity change, negative = inhibition [3] | activity change, negative = inhibition [4] | activity change, negative = inhibition [5]
Cc1cccc(CCNC(=O)CCc2nnc3n(Cc4ccc(F)cc4)c(=O)c4ccccc4n23)c1 | -12.5% | 3.39% | -9.7% | -21.9% | -5.34%
Cc1ccc(C2=NC3(CCN(C(=O)c4cnccn4)CC3)ON2)cc1 | -3.35% | -2.9% | -1.42% | -8.91% | -2.15%
Cc1ccc([S+](=O)([O-])NC2CCN(Cc3ccc(-c4ccsc4)cc3)C2)cc1 (stereo not drawn) | -10.7% | -8.41% | -8.79% | -19.7% | -26.6%
CCc1cc(NCC(c2ccc(C)o2)N2CCOCC2)n2nccc2n1 (stereo not drawn) | -0.619% | 4.33% | 2.26% | -4.39% | -8.95%
CN1CCc2nc(C(=O)N[C@@H]3C[C@@H](C(=O)N(C)C)CC[C@@H]3NC(=O)C(=O)Nc3ccc(Cl)cn3)sc2C1 | -3.83% | -5.39% | 4.57% | -18.3% | 0.02%
COC1C(=O)N(C2CCN(C(=O)C3CC3)CC2)C12CCOCC2 (stereo not drawn) | 0.221% | 0.112% | -0.583% | 1.85% | 2.36%
O=[S+]1([O-])NC2(CCN(Cc3ccncc3)CC2)CNc2ccccc21 | -2.83% | 1.27% | -0.437% | -5.84% | -2.71%
CCCCNC(=O)c1ccc2c(=O)nc3c(-c4ccc(F)cc4)n[nH]n3c2c1 | -1.6% | -0.599% | -2.74% | -3.95% | -6.75%
O=C(c1cc(-c2ccccc2)nc2ccccc12)N1CCOCC(CO)C1 (stereo not drawn) | -1.83% | -0.217% | 0.119% | 0.559% | -3.33%
NC(=O)C1CCN(c2nc3c(S(=O)(=O)c4ccc(Br)cc4)nnn3c3ccccc23)CC1 | -22.6% | -1.69% | -7.12% | -14.8% | -9.07%
COc1cccc(CN2C(=O)c3cc4oc(C)cc4n3CC2(C)C(=O)NC2CCCCCCC2)c1 (stereo not drawn) | -6.72% | 0.484% | -6.85% | -8.11% | -3.82%
O=C(Nc1ccc(S(=O)(=O)Nc2nccs2)cc1)c1cc(-c2ccccc2)nc2ccccc12 | – | -1.34% | – | -46.7% | -20.2%
O=C(CCc1nnc2n(Cc3ccc(Cl)cc3)c(=O)c3ccccc3n12)N1CC=C(c2ccccc2)CC1 | 2.04% | 0% | 8.14% | 2.23% | 0.731%
Cn1c(=O)c2ccc(C(=O)NC3CCCCC3)cc2n2c(SCc3ccc(Cl)cc3)nnc12 | 4.16% | 1.15% | 2.37% | 1.47% | 6.15%
CC1COC2(CCN(c3nc(=O)c4cc(C(F)(F)F)cc([N+](=O)[O-])c4s3)CC2)O1 (stereo not drawn) | 7.81% | 2.14% | 4.73% | -14.2% | -9.54%
CC(C)(C)c1ccc(C(=O)NC(Cc2c[nH]c3ccccc23)C(=O)OCC(=O)c2ccc(Cl)cc2)cc1 (stereo not drawn) | -0.237% | 3.26% | -5.22% | -6.79% | -4.99%
O=C(NCC(F)(F)F)c1ccc2nnc(-c3cncc(Cl)c3)n2c1 | -3.99% | -2.49% | -1.62% | -13.9% | 9.51%
Cc1c(Cl)cccc1N1C(=O)c2cc3sccc3n2CC1(C)C(=O)NC1CCCCCC1 (stereo not drawn) | 3.24% | 0% | 0.113% | 1.53% | -3.25%
CCN(CC)CCCNS(=O)(=O)c1ccc2[nH]c(=O)[nH]c2c1 | 8.47% | 0.162% | -1.66% | 1.4% | 4.34%
O=C1C(Cl)=C(N2CCOCC2)C(=O)N1c1ccc(Cl)c(Cl)c1 | 1.71% | 3.66% | 4.27% | -8.86% | -5.27%
COc1ccc(C(=O)Nc2c(Cl)cncc2Cl)cc1OC1CCCC1 | 4.28% | 0.528% | 2.38% | -15.5% | -5.02%
CCOC(=O)c1ccc(NC(=O)Cn2c(=O)oc3cc(S(=O)(=O)N4CCCC4)ccc32)cc1 | -9.44% | -13.5% | -11.8% | -19% | -32%
CC(C)CCn1c(=O)c2ccc(C(=O)NCC(C)C)cc2n2c(=O)n(Cc3ccccc3)nc12 | 7.94% | 2.22% | 9.15% | 7.98% | 9.57%
Cc1ccc(-c2cc(C(F)(F)F)nn2-c2ccc(S(N)(=O)=O)cc2)cc1 | 1.11% and -0.125% | 3.87% and 8.16% | 7.18% and 6.75% | -14.1% and -17.6% | 0.5% and 6.82%
CN(C)c1ccc(CN2C(=O)c3ccc(-c4ccco4)n3CC2(C)C(=O)NCc2ccc(Cl)cc2)cc1 (stereo not drawn) | -11.2% | -12.3% | -1.3% | -19.9% | -12.4%
Cc1ccc(C(=O)Cn2nc3n(CC(C)C)c(=O)c4ccc(C(=O)NC5CCCCC5)cc4n3c2=O)cc1 | 8.58% | 1.47% | 11.2% | 4.68% | 6.8%
COc1ccc(CCNC(=O)c2cc3n(n2)CC(C)(C(=O)NC2CCCC2)N(C)C3=O)c(OC)c1 (stereo not drawn) | 0.882% | 2.66% | 2.74% | 0.924% | -0.024%
CC1(C(=O)NC2CCCCCC2)Cc2ccccc2C(=O)N1C1CCCCCC1 (stereo not drawn) | -1.84% | 0% | 12.4% | 8.87% | 2.07%
CC1CCC(NC(=O)C2(C)Cn3c(nc4ccccc43)C(=O)N2Cc2ccccc2F)CC1 (stereo not drawn) | -0.82% | 4.1% | 5.98% | 1.04% | 0.371%
CCc1cc2c(cc3n2CC(C)(C(=O)NC2CCCCC2)N(c2ccc(C)cc2)C3=O)s1 (stereo not drawn) | -5.92% | 3.43% | -2.09% | 3.06% | -5.96%
